Experimental data: a collection of fitness landscapes (doi:10.1016/j.celrep.2020.107928)
The full ranking holds about 81,000 sequences; the median of “one-hybrid fitness for binding NBS DNA” is about -0.1, and the highest 2% start at about 0.36. The list shows a part of the results.

B1: Caulobacter ParB omega fusion; a variant is named by its letters at X, in order, B8GW30 (parent)
chain: MESVVVGEPGMSEGRRGLGRGLSALLGEVDAAPAQAPGEQLGGSREAPIEILQRNPDQPRRTFREEDLEDLSNSIREKGVLQPILVRPSPDTAGEYQIVAGERAWRAAQRAGLKTVPIMVRELDDLAVLEIGIIENVQRADLNVLEEALSYKVLMEKFERTQENIAQTIGKSXSHVANXMRLLXLPDEVQSYLVSGELTAXHARAIAAAADPVALAKQIIEGGLSVRETEALARKAPNLSAGKSKGGRPPRVKDTDTQALESDLSSVLGLDVSIDHRGSTGTLTITYATLEQLDDLCNRLTRGI

Variants of: B1
Assay: one-hybrid fitness for binding NBS DNA (the Noc-binding site; scaled: cognate 1, non-cognate 0); higher = stronger binding
Details: with NBS DNA site
Procedure, shortened: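 Bacterial one-hybrid selection in E. coli USO rpoZ- hisB- pyrF- with a HIS3 reporter carrying the site 19 bp from the promoter, screening Caulobacter ParB libraries with four specificity codons randomised (NNS). Cells grew 48 hours at 37°C on M9-minus-histidine plus 0.1 mM IPTG and 5 mM 3-AT. Plasmids before and after selection were Illumina-sequenced, three replicate libraries pooled, and variants under 10 reads dropped. Fitness is the log change in variant-to-wild-type read ratio, rescaled to cognate 1, non-cognate 0.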

Variant | one-hybrid fitness for binding NBS DNA
HLMS | ≤ 0.2
MFAV | ≤ 0.2
QLQS | 0.308
KLAS | ≤ 0.2
WNGR | ≤ 0.2
SFTR | ≤ 0.2
CCKT | ≤ 0.2
APKT | ≤ 0.2
QPIV | ≤ 0.2
QRCN | 0.397
WKQG | ≤ 0.2
PHGG | ≤ 0.2
HAQN | ≤ 0.2
YGLF | ≤ 0.2
NRAS | ≤ 0.2
LRVT | ≤ 0.2
QCLI | ≤ 0.2
HRCC | ≤ 0.2
MELI | ≤ 0.2
ILAD | ≤ 0.2
AAGK | ≤ 0.2
PHHC | ≤ 0.2
LRYR | ≤ 0.2
LRAR | 0.204

Variant | one-hybrid fitness for binding NBS DNA
GMTD | ≤ 0.2
NMKG | ≤ 0.2
LVCC | ≤ 0.2
MYHW | ≤ 0.2
KQMS | ≤ 0.2
PLAG | ≤ 0.2
TFTG | ≤ 0.2
HRRY | ≤ 0.2
GHYL | ≤ 0.2
AHIH | ≤ 0.2
GEQR | ≤ 0.2
QQFY | ≤ 0.2
NTML | ≤ 0.2
EMAA | ≤ 0.2
LPGG | ≤ 0.2
RYEP | ≤ 0.2
SGNL | ≤ 0.2
QRLN | 0.308
NDLL | ≤ 0.2
RWRL | ≤ 0.2
PRGV | ≤ 0.2
KRMS | 0.396
QPDS | ≤ 0.2
NRQC | ≤ 0.2

Variant | one-hybrid fitness for binding NBS DNA
QASI | ≤ 0.2
RMNK | ≤ 0.2
HRIC | ≤ 0.2
PFPL | ≤ 0.2
TPAG | ≤ 0.2
HHRR | ≤ 0.2
TEMG | ≤ 0.2
DMTS | ≤ 0.2
FGYT | ≤ 0.2
EDNR | ≤ 0.2
WTFN | ≤ 0.2
MQWR | ≤ 0.2
PRSV | ≤ 0.2
QMSM | ≤ 0.2
EVTT | ≤ 0.2
FTGR | ≤ 0.2
PRWL | ≤ 0.2
QYVQ | 0.313
TNPV | ≤ 0.2
DCRS | ≤ 0.2
MKCT | ≤ 0.2
IRNR | 0.422
RYWS | ≤ 0.2
FIMR | ≤ 0.2

Variant | one-hybrid fitness for binding NBS DNA
DQNG | ≤ 0.2
ESVT | ≤ 0.2
FTWG | ≤ 0.2
QVFR | 0.302
YGDR | ≤ 0.2
MHFY | ≤ 0.2
LLVG | ≤ 0.2
APPA | ≤ 0.2
KHVE | ≤ 0.2
RHLL | ≤ 0.2
TQPE | ≤ 0.2
VTSS | ≤ 0.2
EGKI | ≤ 0.2
RHAG | ≤ 0.2
SIEG | ≤ 0.2
PFRI | ≤ 0.2
GMIS | ≤ 0.2
GDLR | ≤ 0.2
PAFP | ≤ 0.2
CDSL | ≤ 0.2
LGAR | ≤ 0.2
LSRL | ≤ 0.2
QTNQ | 0.377
GISC | ≤ 0.2

Variant | one-hybrid fitness for binding NBS DNA
DIAY | ≤ 0.2
CDTG | ≤ 0.2
TMSP | ≤ 0.2
LRSS | ≤ 0.2
RKVD | ≤ 0.2
HFCR | ≤ 0.2
THCR | ≤ 0.2
TCRH | ≤ 0.2
AYPT | ≤ 0.2
QHMN | ≤ 0.2
IPFF | ≤ 0.2
SSDK | ≤ 0.2
HGCR | ≤ 0.2
PGNK | ≤ 0.2
RNLY | ≤ 0.2
LRLK | ≤ 0.2
RLAH | ≤ 0.2
KIHR | ≤ 0.2
SRTT | ≤ 0.2
TAIK | ≤ 0.2
HPPQ | ≤ 0.2
SGTN | ≤ 0.2
ADNC | ≤ 0.2
RHSG | ≤ 0.2

Variant | one-hybrid fitness for binding NBS DNA
TWTC | ≤ 0.2
CSGT | ≤ 0.2
TTIT | ≤ 0.2
SCPT | ≤ 0.2
VGMH | ≤ 0.2
YIAS | ≤ 0.2
YACV | ≤ 0.2
QQQM | ≤ 0.2
NLEC | ≤ 0.2
QTVN | ≤ 0.2
RAPQ | ≤ 0.2
FQQS | ≤ 0.2
TWHE | ≤ 0.2
WSTF | ≤ 0.2
QMKH | 0.559
RCEF | ≤ 0.2
LYLG | ≤ 0.2
EIMG | ≤ 0.2
GLLD | ≤ 0.2
QFYS | ≤ 0.2
KGMS | ≤ 0.2
VLHF | ≤ 0.2
HCYR | ≤ 0.2
DGDV | ≤ 0.2

Variant | one-hybrid fitness for binding NBS DNA
FRTT | ≤ 0.2
QRWP | ≤ 0.2
WDRS | ≤ 0.2
TPYN | ≤ 0.2
PWLI | ≤ 0.2
RITY | ≤ 0.2
MQFT | ≤ 0.2
QSLA | ≤ 0.2
KDSS | ≤ 0.2
HSRF | ≤ 0.2
QDWF | ≤ 0.2
TKTD | ≤ 0.2
RRRL | 0.25
CMWR | ≤ 0.2
GRGD | ≤ 0.2
SQHS | ≤ 0.2
TPLT | ≤ 0.2
DEKG | ≤ 0.2
TKIE | ≤ 0.2
YRIG | ≤ 0.2
EIDS | ≤ 0.2
WLRC | ≤ 0.2
RDDA | ≤ 0.2
MPFT | ≤ 0.2

Variant | one-hybrid fitness for binding NBS DNA
FFHG | ≤ 0.2
VYGA | ≤ 0.2
KTPR | ≤ 0.2
PHAA | ≤ 0.2
HRFA | ≤ 0.2
HKMR | ≤ 0.2
QHFI | ≤ 0.2
NPNC | ≤ 0.2
SNDR | ≤ 0.2
SLWV | ≤ 0.2
SVVG | ≤ 0.2
RCGY | ≤ 0.2
TDNA | ≤ 0.2
APSS | ≤ 0.2
MTDD | ≤ 0.2
GEPF | ≤ 0.2
ELYR | ≤ 0.2
YCHS | ≤ 0.2
PRYS | ≤ 0.2
SRLV | ≤ 0.2
STQG | ≤ 0.2
INPT | ≤ 0.2
ESIT | ≤ 0.2
KPKR | ≤ 0.2

Variant | one-hybrid fitness for binding NBS DNA
PHEW | ≤ 0.2
RCKT | 0.653
HQDR | ≤ 0.2
QSAN | ≤ 0.2
GKQT | ≤ 0.2
KMLG | ≤ 0.2
TNHV | ≤ 0.2
SSTH | ≤ 0.2
CYWM | ≤ 0.2
KAPW | ≤ 0.2
DHSV | ≤ 0.2
QTNI | 0.267
HQLS | ≤ 0.2
PPCN | ≤ 0.2
PHAR | ≤ 0.2
ANTK | ≤ 0.2
RTMQ | ≤ 0.2
QAMM | ≤ 0.2
CTSR | ≤ 0.2
YTQS | ≤ 0.2
LDQV | ≤ 0.2
INPR | ≤ 0.2
HKNG | ≤ 0.2
MRKW | ≤ 0.2

Variant | one-hybrid fitness for binding NBS DNA
KRTT | 0.583
AAKC | ≤ 0.2
ISKV | ≤ 0.2
IKNT | ≤ 0.2
CDTV | ≤ 0.2
LACI | ≤ 0.2
QYNP | ≤ 0.2
IGER | ≤ 0.2
NRHY | ≤ 0.2
HIAE | ≤ 0.2
WLAR | ≤ 0.2
NCWT | ≤ 0.2
CGMC | ≤ 0.2
RTMD | ≤ 0.2
PDFS | ≤ 0.2
AIGN | ≤ 0.2
LAGC | ≤ 0.2
VKQV | ≤ 0.2
VREL | ≤ 0.2
YVDC | ≤ 0.2
NYMR | ≤ 0.2
DCVD | ≤ 0.2
SWVC | ≤ 0.2
FYEL | ≤ 0.2

Variant | one-hybrid fitness for binding NBS DNA
HSMM | ≤ 0.2
HTVF | ≤ 0.2
GKND | ≤ 0.2
FTSK | ≤ 0.2
LYAS | ≤ 0.2
KNNT | ≤ 0.2
LTLI | ≤ 0.2
VTIS | ≤ 0.2
MHVS | ≤ 0.2
DWMV | ≤ 0.2
DAAC | ≤ 0.2
WQGR | ≤ 0.2
TTWG | ≤ 0.2
ANAI | ≤ 0.2
TGFI | ≤ 0.2
IPAH | ≤ 0.2
EIIC | ≤ 0.2
RRWD | ≤ 0.2
SYHT | ≤ 0.2
YDTS | ≤ 0.2
PLPS | ≤ 0.2
WACG | ≤ 0.2
FMGL | ≤ 0.2
TPLA | ≤ 0.2

Variant | one-hybrid fitness for binding NBS DNA
KELG | ≤ 0.2
PVTG | ≤ 0.2
MAMG | ≤ 0.2
MDMR | ≤ 0.2
FNPV | ≤ 0.2
SIDW | ≤ 0.2
NRDM | ≤ 0.2
VCVR | ≤ 0.2
QESC | ≤ 0.2
SICR | ≤ 0.2
AQNE | ≤ 0.2
MQIG | ≤ 0.2
EQSS | ≤ 0.2
SMLT | ≤ 0.2
WQCC | ≤ 0.2
HFMV | ≤ 0.2
IMWS | ≤ 0.2
NEKI | ≤ 0.2
NGVE | ≤ 0.2
KTFT | ≤ 0.2
KYNW | ≤ 0.2
KKSS | ≤ 0.2
RVTM | ≤ 0.2
RDYG | ≤ 0.2

Variant | one-hybrid fitness for binding NBS DNA
GPAT | ≤ 0.2
TMNG | ≤ 0.2
GKTF | ≤ 0.2
VKCT | ≤ 0.2
DGNR | ≤ 0.2
TVLF | ≤ 0.2
CLAE | ≤ 0.2
FHCW | ≤ 0.2
QFIL | ≤ 0.2
KWCG | ≤ 0.2
DFFS | ≤ 0.2
GQDP | ≤ 0.2
FRIR | ≤ 0.2
PKAE | ≤ 0.2
CHQV | ≤ 0.2
INVR | ≤ 0.2
YSTR | ≤ 0.2
QIPR | 0.203
